Data reported in US20190153058A1 (DELINIA, published 2019).

Target: T1, IL2Rαβγ (high affinity IL-2 receptor) on human Treg cells (human, UniProt P01589 22-272; P14784 27-551; P31785 23-369)
T1 sequence (looked up) 1: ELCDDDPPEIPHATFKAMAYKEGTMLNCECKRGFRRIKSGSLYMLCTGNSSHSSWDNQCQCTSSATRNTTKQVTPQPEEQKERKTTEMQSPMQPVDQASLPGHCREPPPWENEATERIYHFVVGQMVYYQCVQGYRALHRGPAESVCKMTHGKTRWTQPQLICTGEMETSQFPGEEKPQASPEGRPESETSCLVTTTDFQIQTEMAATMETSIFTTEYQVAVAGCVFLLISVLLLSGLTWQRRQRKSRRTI
T1 sequence (looked up) 2: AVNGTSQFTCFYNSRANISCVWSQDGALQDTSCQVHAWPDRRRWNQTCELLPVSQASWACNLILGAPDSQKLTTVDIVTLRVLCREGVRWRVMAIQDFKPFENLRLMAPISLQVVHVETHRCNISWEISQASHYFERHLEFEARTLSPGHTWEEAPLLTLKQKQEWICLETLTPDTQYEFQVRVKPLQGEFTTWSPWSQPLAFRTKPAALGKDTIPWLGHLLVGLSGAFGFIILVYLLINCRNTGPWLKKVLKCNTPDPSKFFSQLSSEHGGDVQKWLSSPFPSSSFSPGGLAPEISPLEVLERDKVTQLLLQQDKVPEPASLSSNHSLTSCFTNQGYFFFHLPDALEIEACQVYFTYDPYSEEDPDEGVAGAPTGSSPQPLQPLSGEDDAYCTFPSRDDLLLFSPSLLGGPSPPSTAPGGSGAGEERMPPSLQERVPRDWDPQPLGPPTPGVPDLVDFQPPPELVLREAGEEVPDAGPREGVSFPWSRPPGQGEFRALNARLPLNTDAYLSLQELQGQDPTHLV
T1 sequence (looked up) 3: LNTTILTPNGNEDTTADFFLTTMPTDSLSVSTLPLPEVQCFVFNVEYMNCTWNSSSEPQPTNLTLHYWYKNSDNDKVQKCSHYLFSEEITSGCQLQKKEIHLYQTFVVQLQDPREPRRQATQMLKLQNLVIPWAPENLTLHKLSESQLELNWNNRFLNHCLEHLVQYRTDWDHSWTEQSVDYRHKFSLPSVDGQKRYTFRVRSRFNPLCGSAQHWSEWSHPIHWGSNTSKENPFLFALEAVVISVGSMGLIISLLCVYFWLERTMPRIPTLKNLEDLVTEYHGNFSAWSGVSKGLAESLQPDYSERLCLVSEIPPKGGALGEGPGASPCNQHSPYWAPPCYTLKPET
Experiment: cell-based or functional assay

B1: N88RT3AL15AG1 (Fc fusion)
chain: APASSSTKKTQLQLEHLLLDLQMILNGINNYKNPKLTRMLTFKFYMPKKATELKHLQCLEEELKPLEEVLNLAQSKNFHLRPRDLISRINVIVLELKGSETTFMCEYADETATIVEFLNRWITFSQSIISTLTGGGGSGGGGSGGGGS[human IgG1 Fc with changes cut from this listing]
For B1, the “EC50, pSTAT5 in CD25hi human T cells” value was 1.9e-09 M, the “Maximal pSTAT5 response at 10^-8M (% pSTAT5+ cells)” value was 0.97 % pSTAT5+ cells and the “pSTAT5 response at 10^-8M (% of wt IL-2 response)” value was 63 % of wt IL-2 response.
